Experimental findings from paper PMC10984862 are described below.

The chains behind the UniProt entries cited, without tags or fusion partners. Residues count along the entry.
UniProt Q9FL28, residues 870-1155: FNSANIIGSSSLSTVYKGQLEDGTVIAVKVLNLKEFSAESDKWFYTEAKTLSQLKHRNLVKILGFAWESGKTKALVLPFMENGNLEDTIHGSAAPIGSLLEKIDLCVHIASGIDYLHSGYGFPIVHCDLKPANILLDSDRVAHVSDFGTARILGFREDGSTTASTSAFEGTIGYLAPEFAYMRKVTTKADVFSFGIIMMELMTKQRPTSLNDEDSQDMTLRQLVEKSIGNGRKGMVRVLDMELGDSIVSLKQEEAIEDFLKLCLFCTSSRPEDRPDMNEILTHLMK
UniProt Q39026: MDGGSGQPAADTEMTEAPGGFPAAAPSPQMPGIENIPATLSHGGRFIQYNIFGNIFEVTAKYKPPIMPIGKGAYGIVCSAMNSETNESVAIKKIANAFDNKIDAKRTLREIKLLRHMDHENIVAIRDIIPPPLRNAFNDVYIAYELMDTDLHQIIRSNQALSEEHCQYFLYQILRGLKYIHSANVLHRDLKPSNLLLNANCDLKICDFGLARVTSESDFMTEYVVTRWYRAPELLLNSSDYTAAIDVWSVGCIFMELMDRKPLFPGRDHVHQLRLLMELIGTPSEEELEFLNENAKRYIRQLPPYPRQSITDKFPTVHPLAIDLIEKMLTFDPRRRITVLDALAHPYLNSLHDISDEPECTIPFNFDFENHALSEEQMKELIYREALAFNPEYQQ

Results are given in words; binding and its absence hold for the method and conditions named. For some of these results: Binding seen in cells or lysates may run through a third protein. Some entries that bind do so weakly or less than the wild type. Tags and fused reporters may be left off the sequences shown.

One test addresses T1, BD-PP2C15 (Arabidopsis) (UniProt Q9M9C6).
T1 sequence: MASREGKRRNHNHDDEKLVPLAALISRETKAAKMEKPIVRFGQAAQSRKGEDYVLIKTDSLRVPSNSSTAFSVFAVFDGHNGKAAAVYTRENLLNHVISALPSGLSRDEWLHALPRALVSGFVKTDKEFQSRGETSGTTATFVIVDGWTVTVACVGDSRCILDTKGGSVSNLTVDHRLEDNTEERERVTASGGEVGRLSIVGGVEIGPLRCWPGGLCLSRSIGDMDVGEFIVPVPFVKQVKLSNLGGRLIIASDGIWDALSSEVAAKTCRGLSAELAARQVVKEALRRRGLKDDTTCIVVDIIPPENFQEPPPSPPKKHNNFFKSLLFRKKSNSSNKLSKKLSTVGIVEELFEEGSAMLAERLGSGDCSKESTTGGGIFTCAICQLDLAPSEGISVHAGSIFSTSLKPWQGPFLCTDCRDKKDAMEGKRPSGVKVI
Description: two-hybrid; yeast two-hybrid in S. cerevisiae AH109; BD-PP2C15 against AD fusions; growth on SD-LWH or SD-LWHA plates, X-Gal staining, 28°C.

Test [1] deals with T2, BAK1 KD (luciferase complementation construct) (Arabidopsis) (UniProt Q94F62).
T2 sequence: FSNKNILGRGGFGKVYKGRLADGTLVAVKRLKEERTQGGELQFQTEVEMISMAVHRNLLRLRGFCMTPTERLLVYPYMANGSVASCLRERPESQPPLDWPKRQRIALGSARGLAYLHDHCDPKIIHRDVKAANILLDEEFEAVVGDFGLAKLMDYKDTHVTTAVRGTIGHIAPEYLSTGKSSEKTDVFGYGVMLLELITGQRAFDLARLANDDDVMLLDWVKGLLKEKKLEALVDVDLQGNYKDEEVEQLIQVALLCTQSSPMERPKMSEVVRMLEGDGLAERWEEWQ
Kind of test: split reporter; firefly luciferase complementation assay (LCA) in N. benthamiana leaves.

Consider “FLS2 KD (from UniProt Q9FL28 870-1155) (domain or fragment)”, for which the binding entry with BD-PP2C15 (Arabidopsis) is recorded as “no binding”.
On to “MAPK6 (from UniProt Q39026 1-395) (enzyme)”, for which the binding entry in the test with BD-PP2C15 (Arabidopsis) is “no binding”.

B1: SERK4 KD (domain or fragment, UniProt Q9SKG5 294-591)
chain: FSNKNVLGRGGFGKVYKGRLADGNLVAVKRLKEERTKGGELQFQTEVEMISMAVHRNLLRLRGFCMTPTERLLVYPYMANGSVASCLRERPEGNPALDWPKRKHIALGSARGLAYLHDHCDQKIIHRDVKAANILLDEEFEAVVGDFGLAKLMNYNDSHVTTAVRGTIGHIAPEYLSTGKSSEKTDVFGYGVMLLELITGQKAFDLARLANDDDIMLLDWVKEVLKEKKLESLVDAELEGKYVETEVEQLIQMALLCTQSSAMERPKMSEVVRMLEGDGLAERWEEWQKEEMPIHDFN
In the case of B1, the binding result with BD-PP2C15 (Arabidopsis) is “no binding”.

B2: SERK5 KD (domain or fragment, UniProt Q8LPS5 275-572)
chain: FSKRNVLGKGRFGILYKGRLADDTLVAVKRLNEERTKGGELQFQTEVEMISMAVHRNLLRLRGFCMTPTERLLVYPYMANGSVASCLRERPEGNPALDWPKRKHIALGSARGLAYLHDHCDQKIIHLDVKAANILLDEEFEAVVGDFGLAKLMNYNDSHVTTAVRGTIGHIAPEYLSTGKSSEKTDVFGYGVMLLELITGQKAFDLARLANDDDIMLLDWVKEVLKEKKLESLVDAELEGKYVETEVEQLIQMALLCTQSSAMERPKMSEVVRMLEGDGLAERWEEWQKEEMPIHDFN
B2: the binding result in the test with BD-PP2C15 (Arabidopsis) was “no binding”.

B3: IOS1 KD (domain or fragment, UniProt Q9C8I6 586-858)
chain: NNFERVLGRGGFGVVYYGVLNNEPVAVKMLTESTALGYKQFKAEVELLLRVHHKDLTCLVGYCEEGDKMSLIYEFMANGDLKEHLSGKRGPSILTWEGRLRIAAESAQGLEYLHNGCKPQIVHRDIKTTNILLNEKFQAKLADFGLSRSFPLGTETHVSTIVAGTPGYLDPEYYRTNWLTEKSDVFSFGVVLLELVTNQPVIDMKREKSHIAEWVGLMLSRGDINSIVDPKLQGDFDPNTIWKVVETAMTCLNPSSSRRPTMTQVVMDLKECL
In the case of B3, the binding result with BD-PP2C15 (Arabidopsis) is “no binding”.

B4: PP2C15 (luciferase complementation construct) (enzyme, UniProt Q9M9C6 1-436)
chain: MASREGKRRNHNHDDEKLVPLAALISRETKAAKMEKPIVRFGQAAQSRKGEDYVLIKTDSLRVPSNSSTAFSVFAVFDGHNGKAAAVYTRENLLNHVISALPSGLSRDEWLHALPRALVSGFVKTDKEFQSRGETSGTTATFVIVDGWTVTVACVGDSRCILDTKGGSVSNLTVDHRLEDNTEERERVTASGGEVGRLSIVGGVEIGPLRCWPGGLCLSRSIGDMDVGEFIVPVPFVKQVKLSNLGGRLIIASDGIWDALSSEVAAKTCRGLSAELAARQVVKEALRRRGLKDDTTCIVVDIIPPENFQEPPPSPPKKHNNFFKSLLFRKKSNSSNKLSKKLSTVGIVEELFEEGSAMLAERLGSGDCSKESTTGGGIFTCAICQLDLAPSEGISVHAGSIFSTSLKPWQGPFLCTDCRDKKDAMEGKRPSGVKVI
As to B4, the binding entry in test [1] is on record as “binds”.

B5: SERK1 KD (domain or fragment, UniProt Q94AG2 302-589)
chain: FSNKNILGRGGFGKVYKGRLADGTLVAVKRLKEERTPGGELQFQTEVEMISMAVHRNLLRLRGFCMTPTERLLVYPYMANGSVASCLRERPPSQPPLDWPTRKRIALGSARGLSYLHDHCDPKIIHRDVKAANILLDEEFEAVVGDFGLAKLMDYKDTHVTTAVRGTIGHIAPEYLSTGKSSEKTDVFGYGIMLLELITGQRAFDLARLANDDDVMLLDWVKGLLKEKKLEMLVDPDLQTNYEERELEQVIQVALLCTQGSPMERPKMSEVVRMLEGDGLAEKWDEWQ
Regarding B5, the binding entry with BD-PP2C15 (Arabidopsis) was “no binding”.

B6: SERK2 KD (domain or fragment, UniProt Q9XIC7 305-592)
chain: FSNKNILGRGGFGKVYKGRLADGTLVAVKRLKEERTPGGELQFQTEVEMISMAVHRNLLRLRGFCMTPTERLLVYPYMANGSVASCLRERPPSQLPLAWSIRQQIALGSARGLSYLHDHCDPKIIHRDVKAANILLDEEFEAVVGDFGLARLMDYKDTHVTTAVRGTIGHIAPEYLSTGKSSEKTDVFGYGIMLLELITGQRAFDLARLANDDDVMLLDWVKGLLKEKKLEMLVDPDLQSNYTEAEVEQLIQVALLCTQSSPMERPKMSEVVRMLEGDGLAEKWDEWQ
In the case of B6, the binding entry in the test with BD-PP2C15 (Arabidopsis) is on record as “no binding”.

B7: AD-BAK1 KD (domain or fragment, UniProt Q94F62 289-576)
chain: FSNKNILGRGGFGKVYKGRLADGTLVAVKRLKEERTQGGELQFQTEVEMISMAVHRNLLRLRGFCMTPTERLLVYPYMANGSVASCLRERPESQPPLDWPKRQRIALGSARGLAYLHDHCDPKIIHRDVKAANILLDEEFEAVVGDFGLAKLMDYKDTHVTTAVRGTIGHIAPEYLSTGKSSEKTDVFGYGVMLLELITGQRAFDLARLANDDDVMLLDWVKGLLKEKKLEALVDVDLQGNYKDEEVEQLIQVALLCTQSSPMERPKMSEVVRMLEGDGLAERWEEWQ
Take B7: the binding entry in the test with BD-PP2C15 (Arabidopsis) is “binds”.

B8: MAPK3 (enzyme, UniProt Q39023 1-370)
chain: MNTGGGQYTDFPAVETHGGQFISYDIFGSLFEITSKYRPPIIPIGRGAYGIVCSVLDTETNELVAMKKIANAFDNHMDAKRTLREIKLLRHLDHENIIAIRDVVPPPLRRQFSDVYISTELMDTDLHQIIRSNQSLSEEHCQYFLYQLLRGLKYIHSANIIHRDLKPSNLLLNANCDLKICDFGLARPTSENDFMTEYVVTRWYRAPELLLNSSDYTAAIDVWSVGCIFMELMNRKPLFPGKDHVHQMRLLTELLGTPTESDLGFTHNEDAKRYIRQLPNFPRQPLAKLFSHVNPMAIDLVDRMLTFDPNRRITVEQALNHQYLAKLHDPNDEPICQKPFSFEFEQQPLDEEQIKEMIYQEAIALNPTYG
For B8, the binding result with BD-PP2C15 (Arabidopsis) was “no binding”.
